From article PMC4336329 (PLoS ONE, 2015)
About 14,000 (4.5%) of roughly 310,000 compounds showed an effect of 50% or more. The effect is printed as a negative number. The list shows a part of the results.

Each compound was assayed against human ether-à-go-go-related gene (hERG) potassium channel (human, UniProt Q12809) (assay: primary screen, population patch clamp on CHO cells stably expressing hERG).
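Also: peak tail current of the secondary pulse compared with the same well before compound.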

human ether-à-go-go-related gene (hERG) potassium channel, sequence (Q12809 whole entry, looked up): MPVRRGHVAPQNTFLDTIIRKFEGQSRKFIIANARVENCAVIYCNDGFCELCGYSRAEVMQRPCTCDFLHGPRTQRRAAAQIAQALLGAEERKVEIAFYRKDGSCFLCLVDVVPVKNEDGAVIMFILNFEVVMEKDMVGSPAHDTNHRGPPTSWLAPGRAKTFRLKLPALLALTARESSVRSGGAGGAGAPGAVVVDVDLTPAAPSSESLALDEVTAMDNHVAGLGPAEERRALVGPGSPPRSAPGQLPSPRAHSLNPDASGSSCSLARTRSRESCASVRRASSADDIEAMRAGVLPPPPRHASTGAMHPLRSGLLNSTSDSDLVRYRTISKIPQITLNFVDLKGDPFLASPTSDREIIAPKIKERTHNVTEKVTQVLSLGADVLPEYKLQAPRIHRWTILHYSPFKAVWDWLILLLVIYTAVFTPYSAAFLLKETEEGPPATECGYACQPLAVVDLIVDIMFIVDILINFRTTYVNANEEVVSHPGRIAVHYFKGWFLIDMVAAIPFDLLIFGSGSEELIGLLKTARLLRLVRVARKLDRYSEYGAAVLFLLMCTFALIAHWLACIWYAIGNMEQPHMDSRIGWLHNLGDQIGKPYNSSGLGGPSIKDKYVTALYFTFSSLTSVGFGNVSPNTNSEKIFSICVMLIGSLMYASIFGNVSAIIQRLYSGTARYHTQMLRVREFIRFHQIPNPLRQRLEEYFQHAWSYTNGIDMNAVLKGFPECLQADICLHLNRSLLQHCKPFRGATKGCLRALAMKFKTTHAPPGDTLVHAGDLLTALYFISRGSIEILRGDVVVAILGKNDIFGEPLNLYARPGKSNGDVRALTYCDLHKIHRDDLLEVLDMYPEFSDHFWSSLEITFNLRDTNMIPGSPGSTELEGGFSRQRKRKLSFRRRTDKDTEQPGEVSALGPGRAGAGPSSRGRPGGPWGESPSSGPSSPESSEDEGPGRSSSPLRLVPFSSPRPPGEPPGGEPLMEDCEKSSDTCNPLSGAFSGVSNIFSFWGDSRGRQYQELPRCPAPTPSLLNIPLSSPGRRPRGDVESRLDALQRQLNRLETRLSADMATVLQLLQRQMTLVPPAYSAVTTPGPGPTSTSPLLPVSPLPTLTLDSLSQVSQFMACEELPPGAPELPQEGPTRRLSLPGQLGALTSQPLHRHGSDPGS

Point of comparison: `COCC(C)NS(=O)(=O)c1ccc(C)cc1` (centres unmarked), “hERG current change (%, negative = inhibition) at 10uM” value 3.16%. Against it:
- O=C(CCN1C(=O)/C(=C/c2ccccc2)SC1=S)NNC(=O)c1cccnc1 — higher, 15.1%
- COc1ccc(-n2nnnc2SCC(=O)Nc2ccccc2N2CCOCC2)cc1 — lower, -41.2%
- COc1ccc2[nH]cc(CCNC(=O)C3CC(=O)N(c4ccc(Cl)cc4)C3)c2c1 (centres unmarked) — lower, -10.4%
- O=C(Cn1nc(-c2ccc(Cl)cc2)c2ccccc2c1=O)Nc1cccnc1 — lower, -10.3%
- COc1cccc(-c2cc(C(=O)N3CC4(C)CC3CC(C)(C)C4)no2)c1 (centres unmarked) — lower, -10.3%
- Cc1cc(NS(=O)(=O)c2ccc(NC(=O)/C=C/c3cccc(Cl)c3)cc2)no1 — higher, 14.2%
- O=C(/C=C/c1cccs1)N1CCC2(CC1)Oc1ccc(Cl)cc1C(=O)C21CC(c2ccccc2)=NO1 (centres unmarked) — higher, 22.9%
- O=C(COc1coc(CN2CCc3ccccc3C2)cc1=O)Nc1ccccc1F — higher, 3.54%
- O=C1CSC(c2ccncc2)N1Cc1ccc(F)cc1 (centres unmarked) — lower, 1.53%
- Cc1cccc(NS(=O)(=O)c2ccc(C(=O)NCC3(N4CCCCC4)CCCCC3)cc2)c1C — lower, -48.8%
- CC(=O)c1sc(NC(=O)C2CSC3(C)CCC(=O)N23)nc1-c1ccccc1 (centres unmarked) — lower, -5.06%
- Cc1cc(C)c(NS(=O)(=O)c2c(C)noc2C)c(C)c1 — lower, -0.686%
- COc1ccc(/C=C/C=C2\NC(=S)NC2=O)cc1 — higher, 22.1%
- O=C(CSc1ncn[nH]1)Nc1ccc2c(c1)OCCO2 — lower, -26.9%
- CCC(=Nc1cccc(C(F)(F)F)c1)c1c(O)n(C)c(=O)n(C)c1=O — higher, 4.97%
- Cc1ccc(-c2csc(NC(=O)CSc3nc4ccccc4o3)n2)cc1 — higher, 14.2%
- CCc1nc2cccnc2n1-c1ccc(CC(=O)O)cc1 — higher, 12.9%
- O=C(COC(=O)C1CCN(c2ccc(C(F)(F)F)cn2)CC1)c1cccc(Br)c1 — higher, 22.7%
- O=C(COC(=O)CCC(=O)c1cccs1)Nc1cccc(S(=O)(=O)N2CCOCC2)c1 — lower, -20.6%
- NS(=O)(=O)c1ccc(NN=C2CCCCC2)c([N+](=O)[O-])c1 — higher, 9.16%
- O=C(c1cccs1)N1N=C(c2ccc(O)cc2)CC1c1ccccc1 (centres unmarked) — higher, 3.42%
- O=C(COC(=O)C12CC3CC(CC(C3)C1)C2)NCCc1ccccc1 — lower, -10.1%
- O=C(Nc1nc2ccc(F)cc2s1)c1cccs1 — higher, 14.3%
- CCNc1nc(SCc2ccccc2)nc(N2CCOCC2)n1 — lower, -48.8%
- O=C1CCCCC1 — higher, 10.5%
- COc1cc2c(cc1NC(=O)c1ccccc1F)CCCC2 — higher, 17.5%
- Cc1ccc(-c2cc(-c3ccc(C)cc3)[n+](-c3ccc(C(=O)O)cc3)c(-c3ccc(C)cc3)c2)cc1.[O-][Cl+3]([O-])([O-])[O-] — higher, 26.5%
- CCOc1ccc(OCC(=O)OCC(=O)N(CC(C)C)c2c(N)n(Cc3ccccc3)c(=O)[nH]c2=O)cc1 — lower, -4.66%
- CCOC(=O)c1ccc(NCc2ccc(N(C)C)cc2)cc1 — higher, 10.3%
- Cc1ccc(-c2cc(C(=O)NCc3ccccn3)no2)cc1 — lower, 0.477%
- CN(C)c1ccc(/C=N/NC(=O)CCCO)cc1 — higher, 24.4%
- NS(=O)(=O)c1cc2c(cc1Cl)NC(c1ccccc1OCC(=O)O)NS2(=O)=O (centres unmarked) — higher, 19%
- Cl.O=C(CCN1CCC(c2ccccc2)C1)c1ccccc1 (centres unmarked) — lower, -35.8%
- CNc1cc([N+](=O)[O-])ccc1N/C=C/C(=O)c1ccc2c(c1)OCO2 — lower, 0.518%
- CCCCN1C(=O)c2cccc3cc(O)cc(c23)C1=O — lower, -4.44%
- O=C(CCO)c1ccc(O)cc1 — higher, 10.6%
- COc1ccc(/C=N/NC(=O)c2ccc(OC)c(OC)c2)cc1COc1c(F)c(F)c(F)c(F)c1F — higher, 5.91%
- CC(NC(=O)Cc1ccsc1)c1ccc(S(N)(=O)=O)cc1 (centres unmarked) — higher, 7.74%
- O=C(Nc1cccc(S(=O)(=O)N2CCCC2)c1)c1cccnc1 — higher, 6%
- CCn1c2ccccc2c2cc(NC(=O)CC(C)=O)ccc21 — lower, -3.43%
- NC(=O)CSc1nc2ccccc2n1Cc1ccccc1F — lower, -19.5%
- CC(C)N(C(=O)Cn1cc(S(=O)(=O)CC(=O)N2CCOCC2)c2ccccc21)C(C)C — lower, 1.25%
- Cc1ccc(C2C(C(=O)c3ccco3)=C(O)C(=O)N2c2nnc(C)s2)cc1 (centres unmarked) — lower, -0.374%
- CC12C=CC3(CN(Cc4ccccc4)C(=O)C3C1C(=O)NC1CC1)O2 (centres unmarked) — higher, 15.7%
- O=C(NCCCN1CCOCC1)c1cc2ccccc2oc1=O — lower, -24.4%
- COc1cc(/C=N/Nc2ccc(Cl)cc2)ccc1OC(=O)c1cccs1.Cl — higher, 24.6%
- O=C(N/C(=C/c1ccc(Br)cc1)c1nc2ccccc2[nH]1)c1ccco1 — lower, 0.607%
- C/C(=N\O)C(C)(C)NC(=O)Nc1ccc(Cl)cc1 — higher, 8.73%
- COC(=O)C1CCN(C(=O)Cn2nnc(-c3cccc(F)c3)n2)CC1 — higher, 13.2%
- N#C/C=C/C(=C\Nc1ccc(Cl)cc1)S(=O)(=O)c1ccccc1 — higher, 15.5%
- CCOC(=O)c1[nH]c(C)c(C(=O)c2cc(F)ccc2F)c1C — lower, -10%
- COC(=O)[C@]1(C)C[C@H]1[C@H](NP(=O)(c1ccccc1)c1ccccc1)c1ccccc1 — lower, -45.6%
- CCN1CCN(C(c2cccc(OC)c2)c2sc3nc(C)nn3c2O)CC1 (centres unmarked) — higher, 19.7%
- O=C(O)Cn1cc(/C=N/NC(=O)c2cc3cc(Br)ccc3o2)c2ccccc21 — lower, 0.739%
- Cc1cc(C)c(S(=O)(=O)N2CCN(C(=O)c3ccc4c(c3)OCO4)CC2)c(C)c1 — lower, -31.4%
- O=S(=O)(Oc1ccccc1C(=S)N1CCOCC1)c1ccc(Cl)cc1 — higher, 3.56%
- CN(C)c1ccc(C2C3=C(CCCC3=O)OC3=C2C(=O)CCC3)cc1 — higher, 17%
- CCCCN(C1CCS(=O)(=O)C1)S(=O)(=O)c1ccc(OC)c(OC)c1 (centres unmarked) — lower, -3.24%
- Cc1ccccc1N1CCN(C2CCCN(C(=O)c3noc4c3CCCC4)C2)CC1 (centres unmarked) — lower, -63.5%
- OCc1cn(-c2ccccc2)nc1-c1ccc(-c2nn(-c3ccccc3)cc2CO)cc1 — higher, 14%
- CCCOC(=O)c1ccc(OCC(O)CN2CCN(C(=O)c3ccccc3)CC2)cc1.Cl (centres unmarked) — lower, -73.7%
- Cc1cc(=O)oc2cc(OC(C)C(=O)Nc3ccc(N4CCOCC4)cc3)ccc12 (centres unmarked) — lower, -1.31%
- CC(C)CCNC(=O)C(=O)NC1CCCC1 — lower, 0.31%
- COc1ccccc1C(=O)NNC(=O)c1ccc(C)cc1 — higher, 9.24%
- CCCOP(=O)(c1ccc(N(C)C)cc1)C(O)c1ccccc1OC (centres unmarked) — higher, 13%
- Cn1cccc1C(=O)OCC(=O)NC1CCS(=O)(=O)C1 (centres unmarked) — lower, -10.2%
- O=C(NC(=S)Nc1cc(S(=O)(=O)N2CCOCC2)ccc1N1CCOCC1)c1ccco1 — lower, -39.4%
- CCCCC[C@H]1CN(Cc2ccc(OC)cc2)C(=O)[C@@H]1CC(=O)NCc1ccccc1 — lower, -38.6%
- Nc1cc(-c2ccc(Cl)cc2)nn1S(=O)(=O)c1cccc2nsnc12 — lower, -5.17%
- Cc1ccc(NC(=O)[C@@H]2CCCN2C(=O)c2cccs2)cc1S(=O)(=O)N1CCCCC1 — lower, -63.9%
- Cc1ccccc1N(CC(=O)NCc1ccc2c(c1)OCO2)C(=O)CCC(=O)Nc1ccccn1 — lower, 2.38%
- CC(=O)Nc1ccc(NC(=O)Nc2ccc(C)c(C)c2)cc1 — higher, 14.7%
- COC(=O)CN(c1ccc(C)cc1)S(=O)(=O)c1ccc(F)cc1 — lower, -19.9%
- O=C(COC(=O)CCOc1ccccc1)Nc1ccc(Cl)cn1 — lower, 2.43%
- COc1ccc(N(CC(=O)NCc2ccco2)S(=O)(=O)c2ccc(C)cc2)cc1OC — higher, 11.6%
- COc1cc(/C=N/Nc2nc(C)cc(C)n2)ccc1OC(=O)c1ccco1 — higher, 11.2%
- Cc1cc(=O)oc2cc(OC(=O)CCCCCN3C(=O)c4ccccc4C3=O)ccc12 — higher, 9.57%
- CCCc1cc2c(=O)n(NC(=O)c3nn(C)cc3[N+](=O)[O-])c(C)nc2s1 — higher, 32.2%
- COc1cccc(-c2noc(C3CCCN(C(=O)CC(C)(C)C)C3)n2)c1 (centres unmarked) — lower, -10.7%
- O=C(c1ccc(F)cc1)C1CCN(C(=O)c2ccccc2)CC1 — lower, -9.13%
- Cc1ccc(OCC(O)CN2C(=O)NC(C)(C)C2=O)cc1 (centres unmarked) — lower, -2.46%
- CCOc1ccc(Oc2c(/C=N/NC(N)=O)c(C)nn2-c2ccccc2)cc1 — lower, -41.7%
- Fc1ccccc1-c1csc(=Nc2cccnc2)n1CC1CCCO1 (centres unmarked) — lower, -16.8%
- CCOc1ccc(CC2c3cc(OCC)c(OCC)cc3CCN2C(=O)c2cc(OC)c(OC)c(OC)c2)cc1OCC (centres unmarked) — lower, -6.21%
- CCOC(=O)c1ccc(N2C(=O)CC(N3CCN(Cc4ccccc4)CC3)C2=O)cc1 (centres unmarked) — lower, -36.6%
